Measured values published in paper PMC12040169 (PLOS Biology, 2025).
The other results are listed elsewhere or left out.

Test system: T1, C. trachomatis L2/434/Bu expressing GFP (CTL2-GFP)
T1 construct: L2/434/Bu GFP intracellular growth in HeLa cells
Design: species or system HeLa; C. trachomatis total inclusion area by high-content imaging, normalised to DMSO
Details: total inclusion area; 28.5 h, 10 µM; inhibitor
Summary of the method: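 High-content images of fixed, Hoechst-stained infected cultures supply inclusion area and count (growth) plus nuclei number (viability), complementing bulk GFP/resorufin fluorescence. MIC determination is unchanged from the primary assay.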

SMILES	% of control remaining
Cn1ncc(N2CCC(CNC(=O)c3ccc(F)cc3Cl)C2)cc1=O (stereo not shown) [CBK306643]	25.1459
COc1cc2c(cc1OC)CN(CC(N)=O)CC2 [CBK126391]	95.2895
CCN1CC(C(=O)N2CCCC(COc3ccc(F)cc3)C2)CC1=O (stereo not shown) [CBK282028]	103.237
CCN(Cc1ccncc1)C(=O)NCc1cccnc1 [CBK145054]	88.8895
CCOC(=O)C1(Cc2cc(-c3ccc(F)cc3)no2)CCNCC1 [CBK284581]	79.9611
CCN(CC)C(=O)CN(CCc1ccc(OC)c(OC)c1)C(=O)NCCN1CCOCC1 [CBK158734]	91.2189
O=C(NCCC1=CCCCC1)Nc1ccc(F)c(F)c1F [CBK043265]	93.5971
Cc1occc1C(=O)Nc1nc(CC(=O)N2CC(C)SC(C)C2)cs1 (stereo not shown) [CBK306271]	47.6525
O=C(NC(=S)Nc1ccccc1C(=O)O)c1ccc(Cl)cc1 [CBK265044]	78.7506
O=C(OCCC1SC(NC2CC3C=CC2C3)=NC1=O)c1cc(F)ccc1F (stereo not shown) [CBK200059T]	95.6191
O=C(O)C1CCCCC1C(=O)N1CCN(C(c2ccccc2)c2ccccc2)CC1 (stereo not shown) [CBK265480]	90.6979
COc1ccc(Cn2nc3nnc(-c4ccc(F)cc4)c(-c4ccc(F)cc4)n3c2=O)cc1 [CBK286183]	96.6595
CN1CCCC1CCNC(=O)c1ccc(-c2ccoc2)nc1 (stereo not shown) [CBK156255]	112.418
O=C(Cn1ccccc1=O)Nc1ccc(OCC(F)(F)F)nc1 [CBK304556]	44.181
NC[C@H]1CC[C@H](C(=O)NCC2CCCN(Cc3ccccc3)C2)CC1 (stereo partly shown) [CBK282764]	97.3004
O=C(NCCc1ccccc1)c1nc(-c2ccncc2)cs1 [CBK288604]	92.2373
COc1cc(C)c(S(=O)(=O)n2c(C)nc3ccccc32)cc1C [CBK265464]	91.0785
O=C(NCC1CCCO1)[C@H]1CCCC[C@H]1C(=O)O (stereo partly shown) [CBK287104]	104.741
COC(=O)c1cn(Cc2ccccc2)nn1 [CBK073903]	79.3067
O=C(O)CCCNS(=O)(=O)c1ccc([N+](=O)[O-])cc1 [CBK261317]	112.571

SMILES	% of control remaining
COC(=O)c1c(NC(=O)c2c(C)c(-c3ccc(Cl)cc3Cl)nc3ccccc23)sc2c1CCC(C)C2 (stereo not shown) [CBK262644]	106.037
Cc1nn(C)cc1C(=O)NC(Cc1ccsc1)c1cccnc1 (stereo not shown) [CBK285392]	89.0834
COc1nc(N(C)C)nc(N2CC(=O)N(c3ccccc3)C2=N)n1 [CBK269079]	91.1962
CSc1nc(O)c(C(c2ccc(C(=O)O)cc2)c2c(O)nc(SC)nc2O)c(O)n1 [CBK265288]	81.846
CC(=O)N1CCC[C@H]2NC(=O)CNC(=O)C3(C/C=C/C[C@H]21)CCNCC3 [CBK292173]	84.0973
O=C(C1CCCCC1)N1CC(n2nc(-c3ccccc3)ccc2=O)C1 [CBK284616]	112.642
COc1ccc(CCNC(=O)c2ccccc2NS(=O)(=O)c2cc(C(=O)O)ccc2OC)cc1 [CBK297506]	108.369
Cc1ccc(C(C)(C)C(=O)N2CCC(CC(=O)N(C)C)CC2)cc1 [CBK281973]	98.1617
CC(C)c1ccc(N2C(=O)N[C@@H]3CCN(S(=O)(=O)c4ccccc4)[C@@H]3C2=O)cc1 [CBK289289]	107.89
CNc1nc(NCCc2cnc(=O)n(C)c2O)cc(C2CCOC2)n1 (stereo not shown) [CBK307156]	69.9751
Cc1cccc(CN(CCN)C(=O)Nc2ccc(C(C)(C)C)cc2)n1 [CBK046230C]	48.3311
CC(NC(=O)C(C)(C)C)c1nc(-c2cccnc2)n[nH]1 (stereo not shown) [CBK104007]	100.145
CC(=O)Nc1ccc(C#CC2(NC(=O)C3CC3)CCCCC2)cn1 [CBK284676]	78.6201
Cn1c(N2CCC(C(=O)NCC3CC3)CC2)nc2ccccc21 [CBK283957]	86.1577
CC(C)(Oc1ccc(Cl)cc1)C(=O)Nc1nnc[nH]1 [CBK288220]	118.624
CCCNC(=O)CN(C)Cc1nc(-c2cccc(C(F)(F)F)c2)no1 [CBK305672]	71.1181
COc1cccc(C(=O)Nc2ccc(Br)cc2C(=O)O)c1 [CBK022487]	98.9102
CCOC(=O)c1ccccc1NS(C)(=O)=O [CBK262271]	68.4619
CC(C)n1cc(C(=O)N2CCCCC2c2nc3ccccc3[nH]2)cn1 (stereo not shown) [CBK283679]	44.3616
CC(=O)Nc1cc(NC(C)=O)c(O)c(C(=O)O)c1 [CBK009871]	106.378
